{"source": "PubChem BioAssay AID463173", "about": "(ICCB-Longwood Screening Facility, Harvard Medical School, 2010)", "note": "About 1,700 (3.3%) of roughly 52,000 compounds were called active. Rule as the data show it: active = survival mostly below about 52% (no sharp cut-off); inactive = mostly above about 56%. This is one part of the list."}
{"test_system": "Wild type", "experiment": "growth inhibition of S. aureus wild type versus tarO mutant, primary screen, teichoic acid synthesis inhibitors, RN4220, OD600 (AID 463173)", "conditions": "S. aureus RN4220 wild type/DeltatarO growth, OD600, 18 h, active compounds read low, screened at 18.75 µg/mL (by protocol)"}
{"smiles": "COc1ccc(C)cc1NC(=O)c1cn(C)c(=O)c2cc(OC)c(OC)cc12", "survival": "inactive: 76%"}
{"smiles": "C=CCNC(=S)N1CCN(C(=S)NCC=C)CC1", "survival": "inactive: 100%"}
{"smiles": "Cc1ccc(S(=O)(=O)NCc2nc3cccnc3n2Cc2ccccc2Cl)c(C)c1", "survival": "inactive: 72%"}
{"smiles": "CCc1nnc2c(Nc3ccc(N(CC)CC)cc3C)nc3ccccc3n12", "survival": "inactive: 120%"}
{"smiles": "O=C(CSc1ncn[nH]1)N1CCCCC1", "survival": "inactive: 108%"}
{"smiles": "COc1ccccc1NC(=O)CN1C(=O)c2ccccc2Sc2ccc(C(=O)N3CCCC3)cc21", "survival": "inactive: 57%"}
{"smiles": "CCc1ccccc1NC(=O)N1CC(C)Sc2ccccc21", "note": "(stereo not drawn)", "survival": "inactive: 73%"}
{"smiles": "O=C(Nc1ccc(Br)cc1F)N1CC=C(c2c[nH]c3ccccc23)CC1", "survival": "inactive: 105%"}
{"smiles": "CC(=O)c1ccc(NC(=O)c2nc(-c3ccccc3)n(-c3ccccc3)n2)cc1", "survival": "inactive: 92%"}
{"smiles": "CC(=O)c1ccccc1OCC(O)Cn1c(CO)nc2ccccc21", "note": "(stereo not drawn)", "survival": "inactive: 88%"}
{"smiles": "O=C(c1cc2ccccc2oc1=O)N1CCSC1c1ccco1", "note": "(stereo not drawn)", "survival": "inactive: 122%"}
{"smiles": "COc1cccc(N2CCN(C(=O)CCCCCn3c(=O)[nH]c4ccccc4c3=O)CC2)c1", "survival": "inactive: 76%"}
{"smiles": "CC1CCn2c(nc3cc(C(=O)NCc4ccc(OC(C)C)cc4)ccc32)C1", "note": "(stereo not drawn)", "survival": "inactive: 105%"}
{"smiles": "Cc1cc(N2C(=O)CCC2=O)n(-c2ccccc2)n1", "survival": "inactive: 111%"}
{"smiles": "CC(C)c1ccc(NC(=O)CSc2nc3ccccc3nc2Cc2ccccc2)cc1", "survival": "inactive: 65%"}
{"smiles": "COc1ccccc1CNC(=O)C1CCN(S(=O)(=O)c2ccc3c(c2)CCCN3C(C)=O)CC1", "survival": "inactive: 92%"}
{"smiles": "CCC(C(=O)NC1CCC(C)CC1)n1nc(C)c2sc3ccccc3c2c1=O", "note": "(stereo not drawn)", "survival": "inactive: 88%"}
{"smiles": "CCc1ccc(CNC(=O)c2cc3c(=O)n(Cc4cccs4)ccc3nc2C)cc1", "survival": "active: 0%"}
{"smiles": "CCc1nc2nc(C)c(NS(=O)(=O)c3ccc(C)cc3)c(=O)n2[nH]1", "survival": "inactive: 84%"}
{"smiles": "CCOc1ccccc1NC(=O)Cn1nnc(C(=O)NCc2ccc(F)cc2)c1N", "survival": "inactive: 101%"}
{"smiles": "CN(C)CCNC(=O)C(=O)NCC(c1cccnc1)N1CCN(c2ccc(F)cc2)CC1", "note": "(stereo not drawn)", "survival": "inactive: 87%"}
{"smiles": "COc1ccc(Cn2ccc3nc(C)c(C(=O)N4CCN(c5ccc(OC)cc5)CC4)cc3c2=O)cc1", "survival": "inactive: 130%"}
{"smiles": "COc1cccc(/C=N/n2c(N)nc3ccccc32)c1OC", "survival": "inactive: 103%"}
{"smiles": "Cc1ccc(S(=O)(=O)N(C)Cc2nc(-c3ccccc3)oc2C)cc1", "survival": "inactive: 74%"}
{"smiles": "Cc1cc(C)cc(NC(=O)Cc2c(C(=O)O)c(C)cn2C)c1", "survival": "inactive: 47%"}
{"smiles": "O=C(Cn1cc(SCc2ccccc2F)c2ccccc21)N1CCCCC1", "survival": "inactive: 93%"}
{"smiles": "O=C(NCc1ccco1)c1ccc2c(c1)N(Cc1c(F)cccc1Cl)C(=O)c1ccccc1S2", "survival": "inactive: 93%"}
{"smiles": "COc1ccc(-c2c(C)nn3c(C(F)(F)F)cc(-c4ccccc4)nc23)cc1", "survival": "inactive: 60%"}
{"smiles": "COc1ccc(OC)c(NC(=O)c2cc(C3CC3)nc3c2c(C)nn3-c2ccc(C)cc2)c1", "survival": "inactive: 75%"}
{"smiles": "COc1ccc(C(=O)NCc2ccc3c(c2)CCN3C(=O)c2ccc(C)cc2)cc1", "survival": "inactive: 105%"}
{"smiles": "Cc1cccc(-n2c(=O)c3ccccc3n(Cc3ccccc3)c2=O)c1", "survival": "inactive: 87%"}
{"smiles": "Cc1ccc(-n2nc3ccc(NC(=O)COc4ccccc4)cc3n2)cc1Cl", "survival": "inactive: 73%"}
{"smiles": "Cc1ccc(CNC(=O)C2CCN(Cc3nc(-c4cccc(Br)c4)oc3C)CC2)cc1", "survival": "inactive: 75%"}
{"smiles": "CC(=O)c1cccc(NC(=O)C2CCN(S(=O)(=O)c3ccc4[nH]c(=O)ccc4c3)CC2)c1", "survival": "inactive: 75%"}
{"smiles": "CCOc1ccc(-n2c(=O)c3c4c(sc3n(CC(=O)NC(C)CC)c2=O)CCCC4)cc1", "note": "(stereo not drawn)", "survival": "inactive: 89%"}
{"smiles": "CCOc1ccc(N(CC)C(=O)c2nn(-c3ccc(OC)cc3)c(=O)c3c2c2ccccc2n3C)cc1", "survival": "inactive: 92%"}
{"smiles": "Cc1cc(C(=O)OC(C)C)ccc1-c1ccc(C=C(C#N)C#N)o1", "survival": "inactive: 113%"}
{"smiles": "CCc1cc2c(cc(C(=O)OC)n2Cc2nc(-c3ccc(C)cc3)oc2C)s1", "survival": "inactive: 16%"}
{"smiles": "O=C(CSc1nc2c([nH]c3ccccc32)c(=O)n1-c1cccc(C(F)(F)F)c1)N1CCc2ccccc21", "survival": "inactive: 77%"}
{"smiles": "O=C(O)c1ccc(CNCc2ccccc2Cl)s1", "survival": "inactive: 88%"}
{"smiles": "CCc1ccc(C(=O)N2CCC(c3nc(-c4ccc(S(=O)(=O)N5CCCC5)cc4)no3)CC2)cc1", "survival": "inactive: 95%"}
{"smiles": "COc1ccc(/C=C2\\SC(=S)N(CCC(=O)NCCO)C2=O)cc1", "survival": "inactive: 119%"}
{"smiles": "COc1ccc(C(=O)Nc2nnc(SCc3cc(=O)n4cccc(C)c4n3)s2)cc1", "survival": "inactive: 81%"}
{"smiles": "COC(=O)/C=C1/N/C(=N/c2nc3cc(C)ccc3o2)NC1=O", "survival": "inactive: 97%"}
{"smiles": "O=S(=O)(c1ccc(Br)cc1)c1nnn2c1nc(NCc1ccc3c(c1)OCO3)c1sccc12", "survival": "inactive: 90%"}
{"smiles": "Cc1cccc(CNC(=O)c2ccc3oc(=O)n(Cc4ccccc4)c3c2)c1", "survival": "inactive: 60%"}
{"smiles": "COc1cc(Cl)c(C)cc1NC(=O)Cn1ncc2c1-c1cc(C)ccc1OC2", "survival": "inactive: 87%"}
{"smiles": "CCCSc1ncc(Cl)c(C(=O)Nc2c(C(=O)Nc3ccc(OC)cc3)oc3ccccc23)n1", "survival": "inactive: 85%"}
{"smiles": "CCCOc1ccc(CNC(=O)CCCn2nc(C)c3sc4ccccc4c3c2=O)cc1", "survival": "inactive: 112%"}
{"smiles": "Cc1ccc(CNC(=O)CCCCCn2c(=O)c3sccc3n(CC(=O)Nc3c(C)cc(C)cc3C)c2=O)cc1", "survival": "inactive: 83%"}
{"smiles": "O=C(Nc1cc(Cl)ccc1Cl)c1cc2nc(-c3ccc4c(c3)OCO4)cc(C(F)(F)F)n2n1", "survival": "inactive: 80%"}
{"smiles": "CC1CCCN(Cc2nc3c(c(=O)n(C)c(=O)n3C)n2Cc2ccc(Cl)cc2)C1", "note": "(stereo not drawn)", "survival": "inactive: 89%"}
{"smiles": "CCOC(=O)Cc1nnc2c3ccccc3n(C)c2n1", "survival": "inactive: 118%"}
{"smiles": "Cc1cc(C)cc(NC(=O)CSc2oc(-c3ccco3)nc2S(=O)(=O)c2ccc(Cl)cc2)c1", "survival": "inactive: 91%"}
{"smiles": "Cn1nc(C(=O)NCc2ccccc2Cl)c2c1-c1ccccc1S(=O)(=O)C2", "survival": "inactive: 102%"}
{"smiles": "CSc1ccc(CNC(=O)C2CCN(c3nc4ccccc4nc3C(F)(F)F)CC2)cc1", "survival": "inactive: 94%"}
{"smiles": "COc1ccc(Cl)cc1NC(=O)C1CCN(S(=O)(=O)c2ccc3c(c2)CC(C)N3C(C)=O)CC1", "note": "(stereo not drawn)", "survival": "inactive: 83%"}
{"smiles": "COc1ccc(-n2ncc(C(=O)N3CCN(c4cc(C)ccc4C)CC3)c2C2CCN(C(=O)OC(C)(C)C)CC2)cc1", "survival": "inactive: 59%"}
{"smiles": "COc1ccc(CNCc2c(C(=O)O)c(C)n(Cc3ccccc3C)c2C)c(OC)c1", "survival": "inactive: 127%"}
{"smiles": "CCN(CC)CCNC(=O)c1cn(CCOC)c(=O)c2c1c1ccccc1n2C", "survival": "inactive: 79%"}
{"smiles": "COc1ccc(Nc2cc(C)c3cc(NC(=O)Cc4ccc(Cl)cc4)ccc3n2)cc1", "survival": "inactive: 101%"}
{"smiles": "Cc1ccc(Cl)cc1N1CCN(c2ncnc3c2nc2n3CCCCC2)CC1", "survival": "inactive: 70%"}
{"smiles": "CCCCNC(=O)C1CCN(c2nc3ccccc3nc2C(F)(F)F)CC1", "survival": "inactive: 82%"}
{"smiles": "COc1ccc(Cc2nnc(NC(=O)c3cccs3)s2)cc1OC", "survival": "inactive: 92%"}
{"smiles": "Cc1cc(C)c(S(=O)(=O)N2CCC(N3CCN(Cc4ccccc4)C(=O)C3=O)CC2)c(C)c1", "survival": "inactive: 54%"}
{"smiles": "Cc1ccc(-n2c(SCC(=O)NC(C)(C)C)nc(O)cc2=O)cc1", "survival": "inactive: 101%"}
{"smiles": "COc1ccc2c(c1)c1c(c(=O)n(-c3ccccc3C)c(=O)n1C)n2C", "survival": "inactive: 81%"}
{"smiles": "CCN(CC)S(=O)(=O)c1cccc(C(=O)Nc2sc3c(c2C#N)CCC(C)C3)c1", "note": "(stereo not drawn)", "survival": "inactive: 146%"}
{"smiles": "Cc1nnc(NC(=O)CSc2nccn2Cc2ccc(Cl)cc2)s1", "survival": "inactive: 118%"}
{"smiles": "O=C(CSc1cn(CCNC(=O)c2c(F)cccc2F)c2ccccc12)Nc1ccc(F)cc1", "survival": "inactive: 134%"}
{"smiles": "Cc1ccc(-c2c(C(=O)N3CCN(c4cc(Cl)ccc4C)CC3)oc(=O)c3ccccc23)cc1", "survival": "inactive: 77%"}
{"smiles": "CCS(=O)(=O)c1ncc(Cl)c(C(=O)Nc2c(C(=O)Nc3cccc(C)c3)oc3ccccc23)n1", "survival": "inactive: 77%"}
{"smiles": "COc1ccc(C)cc1NC(=O)c1cc2c(=O)n(Cc3cccnc3)ccc2nc1C", "survival": "inactive: 94%"}
{"smiles": "Cc1nc2nc(NC(=O)CC(C)C)[nH]n2c(=O)c1Cc1ccccc1", "survival": "inactive: 110%"}
{"smiles": "CCc1ccccc1NC(=O)Cc1ccc(NC(=O)N2CCCCc3ccccc32)cc1", "survival": "inactive: 128%"}
{"smiles": "Nc1ccc(C(=O)N(CCO)CCO)cc1", "survival": "inactive: 98%"}
{"smiles": "O=C(Nc1ccc(F)c(Cl)c1)N1CCC2(CC1)Oc1ccccc1C(=O)N2Cc1ccccc1F", "survival": "inactive: 79%"}
{"smiles": "COc1ccccc1N1CCN(C(CNC(=O)C(=O)NCc2ccc(F)cc2)c2cccnc2)CC1", "note": "(stereo not drawn)", "survival": "inactive: 103%"}
{"smiles": "CCN(Cc1ccccc1)C(=O)c1cc2c(=O)[nH]c3ccc(C)cc3c2s1", "survival": "inactive: 72%"}
{"smiles": "CCc1nnc(SCC(=O)Nc2cc(OC)ccc2OC)nc1CC", "survival": "inactive: 64%"}
{"smiles": "COC(=O)c1c(NC(=O)c2cccs2)sc2c1C(C(=O)OC)CC2", "note": "(stereo not drawn)", "survival": "inactive: 104%"}
{"smiles": "Cc1cccc(Cn2c(COc3ccc(Cl)cc3)nc3ccccc32)c1", "survival": "inactive: 61%"}
{"smiles": "Cc1ccc(CCNC(=O)c2cc3n(n2)CCCN(Cc2ccc(C)cc2)C3=O)cc1", "survival": "inactive: 65%"}
{"smiles": "CCOc1ccc(S(=O)(=O)N(CC(=O)NCCSc2ccc(C)cc2)c2ccccc2)cc1", "survival": "inactive: 96%"}
{"smiles": "Cc1ccc(NC(=O)N2CCN(c3ccc(Cl)c(Cl)c3)CC2)cc1", "survival": "inactive: 111%"}
{"smiles": "CCCCn1cc(S(=O)(=O)c2ccc(C)c(C)c2)c(=O)c2cc(F)c(N(CC)CC)cc21", "survival": "inactive: 72%"}
{"smiles": "COc1ccc(-c2nc(CN3CCC(C(=O)NCCc4ccccc4)CC3)c(C)o2)cc1OC", "survival": "inactive: 82%"}
{"smiles": "CCn1nc(-c2ccccc2)c(-c2ccccc2)c(C(=O)Nc2nc(C)c(C(C)=O)s2)c1=O", "survival": "inactive: 89%"}
